Reference: paper PMC9911399, “Two distinct binding modes provide the RNA-binding protein RbFox with extraordinary sequence specificity”
Changes are numbered by the printed parent chain; changes in the protein carry UniProt numbers. The list shows a part of the results.

T1: RBFOX1 RRM RbFoxmut (Fox-RRM*) (Homo sapiens, UniProt Q9NWB1 109-208, R118D;E147R;N151S;E152T)
T1 sequence: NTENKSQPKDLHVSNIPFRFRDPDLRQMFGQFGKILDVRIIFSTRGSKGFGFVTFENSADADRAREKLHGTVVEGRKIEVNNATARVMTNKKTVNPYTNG

B1: UCAGUGA (DNA:RNA)
RNA: GGGAGACCGGAAUUCAGAUUGUCCUCAGUGAUUAAAUCCCGUCGUAGCCACCA
DNA 1: CAATCTGAATTCCGGTCTCCC
DNA 2: TGGTGGCTACGACGGGATT
B2: UGGUAAG (DNA:RNA)
RNA: B1 RNA with C26G, A27G, G28U, U29A, G30A, A31G
DNA 1: CAATCTGAATTCCGGTCTCCC
DNA 2: TGGTGGCTACGACGGGATT
B3: CCCCGUC (DNA:RNA)
RNA: B1 RNA with U25C, A27C, G28C, U29G, G30U, A31C
DNA 1: CAATCTGAATTCCGGTCTCCC
DNA 2: TGGTGGCTACGACGGGATT
B4: AUAUACU (DNA:RNA)
RNA: B1 RNA with U25A, C26U, G28U, U29A, G30C, A31U
DNA 1: CAATCTGAATTCCGGTCTCCC
DNA 2: TGGTGGCTACGACGGGATT
B5: ACGGAAU (DNA:RNA)
RNA: B1 RNA with U25A, A27G, U29A, G30A, A31U
DNA 1: CAATCTGAATTCCGGTCTCCC
DNA 2: TGGTGGCTACGACGGGATT
B6: CUUACUU (DNA:RNA)
RNA: GGGAGACCGGAAUUCAGAUUGUCCCUUACUUUUAAAUCCCGUCGUAGCCACCA
DNA 1: CAATCTGAATTCCGGTCTCCC
DNA 2: TGGTGGCTACGACGGGATT
B7: GUUCCGA (DNA:RNA)
RNA: B6 RNA with C25G, A28C, U30G, U31A
DNA 1: CAATCTGAATTCCGGTCTCCC
DNA 2: TGGTGGCTACGACGGGATT
B8: UAUCCGC (DNA:RNA)
RNA: B6 RNA with C25U, U26A, A28C, U30G, U31C
DNA 1: CAATCTGAATTCCGGTCTCCC
DNA 2: TGGTGGCTACGACGGGATT
B9: UUGUACU (DNA:RNA)
RNA: B6 RNA with C25U, U27G, A28U, C29A, U30C
DNA 1: CAATCTGAATTCCGGTCTCCC
DNA 2: TGGTGGCTACGACGGGATT
B10: UAAUUCA (DNA:RNA)
RNA: B1 RNA with C26A, G28U, G30C
DNA 1: CAATCTGAATTCCGGTCTCCC
DNA 2: TGGTGGCTACGACGGGATT
B11: GAUAAAU (DNA:RNA)
RNA: B6 RNA with C25G, U26A, C29A, U30A
DNA 1: CAATCTGAATTCCGGTCTCCC
DNA 2: TGGTGGCTACGACGGGATT
B12: CGCAGUU (DNA:RNA)
RNA: B6 RNA with U26G, U27C, C29G
DNA 1: CAATCTGAATTCCGGTCTCCC
DNA 2: TGGTGGCTACGACGGGATT
B13: GGGCCUU (DNA:RNA)
RNA: B6 RNA with C25G, U26G, U27G, A28C
DNA 1: CAATCTGAATTCCGGTCTCCC
DNA 2: TGGTGGCTACGACGGGATT
B14: UUGACGA (DNA:RNA)
RNA: B6 RNA with C25U, U27G, U30G, U31A
DNA 1: CAATCTGAATTCCGGTCTCCC
DNA 2: TGGTGGCTACGACGGGATT
B15: AUAUUAU (DNA:RNA)
RNA: B6 RNA with C25A, U27A, A28U, C29U, U30A
DNA 1: CAATCTGAATTCCGGTCTCCC
DNA 2: TGGTGGCTACGACGGGATT
B16: CGAAUAU (DNA:RNA)
RNA: B6 RNA with U26G, U27A, C29U, U30A
DNA 1: CAATCTGAATTCCGGTCTCCC
DNA 2: TGGTGGCTACGACGGGATT
B17: AUAGGAC (DNA:RNA)
RNA: B1 RNA with U25A, C26U, U29G, G30A, A31C
DNA 1: CAATCTGAATTCCGGTCTCCC
DNA 2: TGGTGGCTACGACGGGATT
B18: UCAUUAA (DNA:RNA)
RNA: B1 RNA with G28U, G30A
DNA 1: CAATCTGAATTCCGGTCTCCC
DNA 2: TGGTGGCTACGACGGGATT
B19: UAACAAG (DNA:RNA)
RNA: B1 RNA with C26A, G28C, U29A, G30A, A31G
DNA 1: CAATCTGAATTCCGGTCTCCC
DNA 2: TGGTGGCTACGACGGGATT
B20: CGUAAGC (DNA:RNA)
RNA: B6 RNA with U26G, C29A, U30G, U31C
DNA 1: CAATCTGAATTCCGGTCTCCC
DNA 2: TGGTGGCTACGACGGGATT
B21: CUAAUUU (DNA:RNA)
RNA: B6 RNA with U27A, C29U
DNA 1: CAATCTGAATTCCGGTCTCCC
DNA 2: TGGTGGCTACGACGGGATT
B22: GAUCUCA (DNA:RNA)
RNA: B1 RNA with U25G, C26A, A27U, G28C, G30C
DNA 1: CAATCTGAATTCCGGTCTCCC
DNA 2: TGGTGGCTACGACGGGATT
B23: UAGCAGG (DNA:RNA)
RNA: B1 RNA with C26A, A27G, G28C, U29A, A31G
DNA 1: CAATCTGAATTCCGGTCTCCC
DNA 2: TGGTGGCTACGACGGGATT
B24: GUAAUGG (DNA:RNA)
RNA: B1 RNA with U25G, C26U, G28A, A31G
DNA 1: CAATCTGAATTCCGGTCTCCC
DNA 2: TGGTGGCTACGACGGGATT
B25: GGAUAGU (DNA:RNA)
RNA: B1 RNA with U25G, C26G, G28U, U29A, A31U
DNA 1: CAATCTGAATTCCGGTCTCCC
DNA 2: TGGTGGCTACGACGGGATT
B26: GAAAGCG (DNA:RNA)
RNA: B6 RNA with C25G, U26A, U27A, C29G, U30C, U31G
DNA 1: CAATCTGAATTCCGGTCTCCC
DNA 2: TGGTGGCTACGACGGGATT
B27: CCAGCGA (DNA:RNA)
RNA: B1 RNA with U25C, U29C
DNA 1: CAATCTGAATTCCGGTCTCCC
DNA 2: TGGTGGCTACGACGGGATT
B28: UAGCCUA (DNA:RNA)
RNA: B6 RNA with C25U, U26A, U27G, A28C, U31A
DNA 1: CAATCTGAATTCCGGTCTCCC
DNA 2: TGGTGGCTACGACGGGATT
B29: CAUUCAG (DNA:RNA)
RNA: B6 RNA with U26A, A28U, U30A, U31G
DNA 1: CAATCTGAATTCCGGTCTCCC
DNA 2: TGGTGGCTACGACGGGATT
B30: GAAGUGC (DNA:RNA)
RNA: B1 RNA with U25G, C26A, A31C
DNA 1: CAATCTGAATTCCGGTCTCCC
DNA 2: TGGTGGCTACGACGGGATT
B31: CAAAAUU (DNA:RNA)
RNA: B6 RNA with U26A, U27A, C29A
DNA 1: CAATCTGAATTCCGGTCTCCC
DNA 2: TGGTGGCTACGACGGGATT

The binders below were run against T1, RBFOX1 RRM RbFoxmut (Fox-RRM*) (assay: EMSA; HiTS-Eq, 1 nM pool, 10 min; buffer printed only for the single-RNA assays: 10 mM Tris pH 7.5, 150 mM NaCl, 3.4 mM EDTA, 0.001% NP-40, 30 C). Conditions: tags: His6 N-terminal (pET28a); label: 5' 32P.
Method in brief: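 A pool of RNA with 7 randomized nucleotides, 5′-radiolabelled and with DNA-annealed flanks, was equilibrated at 1 nM for 10 min in 50 µL with purified RbFox RRM, wild type or mutant, across increasing protein concentrations. Free RNA was separated by 8% native PAGE, excised, reverse-transcribed, barcoded by PCR and sequenced. Relative association constants were obtained from read-count changes of each RNA species versus the control reaction and normalised to the cognate motif.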

Binder	binding signal
B1	0.0982 KA relative to UGCAUGU
B2	0.147 KA relative to UGCAUGU
B3	0.121 KA relative to UGCAUGU
B4	0.124 KA relative to UGCAUGU
B5	0.115 KA relative to UGCAUGU
B6	0.101 KA relative to UGCAUGU
B7	0.106 KA relative to UGCAUGU
B8	0.117 KA relative to UGCAUGU
B9	0.102 KA relative to UGCAUGU
B10	0.104 KA relative to UGCAUGU
B11	0.0497 KA relative to UGCAUGU
B12	0.0941 KA relative to UGCAUGU
B13	0.0652 KA relative to UGCAUGU
B14	0.0482 KA relative to UGCAUGU
B15	0.143 KA relative to UGCAUGU
B16	0.117 KA relative to UGCAUGU

Binder	binding signal
B17	0.074 KA relative to UGCAUGU
B18	0.144 KA relative to UGCAUGU
B19	0.052 KA relative to UGCAUGU
B20	0.097 KA relative to UGCAUGU
B21	0.0946 KA relative to UGCAUGU
B22	0.106 KA relative to UGCAUGU
B23	0.0972 KA relative to UGCAUGU
B24	0.0836 KA relative to UGCAUGU
B25	0.158 KA relative to UGCAUGU
B26	0.0815 KA relative to UGCAUGU
B27	0.0745 KA relative to UGCAUGU
B28	0.0899 KA relative to UGCAUGU
B29	0.141 KA relative to UGCAUGU
B30	0.096 KA relative to UGCAUGU
B31	0.0788 KA relative to UGCAUGU
